From a collection of fitness landscapes (doi:10.1016/j.celrep.2020.107928) come the findings set out here.

In all, about 81,000 sequences were measured (“one-hybrid fitness for binding parS DNA”: median about -0.17, highest 2% from about 0.51 on). This is one part of the list.

Sequences and labels used below:
B1: Caulobacter ParB omega fusion; a variant is named by its letters at X, in order, B8GW30 (parent)
chain: MESVVVGEPGMSEGRRGLGRGLSALLGEVDAAPAQAPGEQLGGSREAPIEILQRNPDQPRRTFREEDLEDLSNSIREKGVLQPILVRPSPDTAGEYQIVAGERAWRAAQRAGLKTVPIMVRELDDLAVLEIGIIENVQRADLNVLEEALSYKVLMEKFERTQENIAQTIGKSXSHVANXMRLLXLPDEVQSYLVSGELTAXHARAIAAAADPVALAKQIIEGGLSVRETEALARKAPNLSAGKSKGGRPPRVKDTDTQALESDLSSVLGLDVSIDHRGSTGTLTITYATLEQLDDLCNRLTRGI

The variants in the assay derive from B1. Put plainly: one-hybrid fitness for binding parS DNA (scaled: cognate 1, non-cognate 0); higher = stronger binding. The following applies: with parS DNA site. The essentials:
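Pre- and post-selection plasmids were Illumina-sequenced, three replicate libraries were pooled, and any variant with under 10 reads was removed. The libraries were Caulobacter ParB with four specificity codons randomised, selected in E. coli USO through a HIS3 reporter whose site is 19 bp from the promoter. Cells grew 48 hours at 37°C on M9 without histidine, with 0.1 mM IPTG and 5 mM 3-AT. Fitness is the log change in variant-to-wild-type read ratio, rescaled against cognate and non-cognate.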
On to PSEG, for which the “one-hybrid fitness for binding parS DNA” value is at most 0.2.

For EHAL, the “one-hybrid fitness for binding parS DNA” value was at most 0.2.

Regarding SQCK, the “one-hybrid fitness for binding parS DNA” value is at most 0.2.

Turning to AYAS, the “one-hybrid fitness for binding parS DNA” value was at most 0.2.

On to RALI, for which the “one-hybrid fitness for binding parS DNA” value was at most 0.2.

Take IDFR: the “one-hybrid fitness for binding parS DNA” value was at most 0.2.

On to AYCK, for which the “one-hybrid fitness for binding parS DNA” value is at most 0.2.

QPYY: the “one-hybrid fitness for binding parS DNA” value is at most 0.2.

Consider GTAS, for which the “one-hybrid fitness for binding parS DNA” value was at most 0.2.

As to QEVS, the “one-hybrid fitness for binding parS DNA” value is at most 0.2.

As to IFRK, the “one-hybrid fitness for binding parS DNA” value is at most 0.2.

As to HGPT, the “one-hybrid fitness for binding parS DNA” value is at most 0.2.

For the variant TIKS, the “one-hybrid fitness for binding parS DNA” value was at most 0.2.

As to QWAR, the “one-hybrid fitness for binding parS DNA” value is at most 0.2.

In the case of FSPI, the “one-hybrid fitness for binding parS DNA” value is at most 0.2.

Turning to RSCR, the “one-hybrid fitness for binding parS DNA” value is at most 0.2.

Turning to CPTY, the “one-hybrid fitness for binding parS DNA” value is at most 0.2.

Take NFLN: the “one-hybrid fitness for binding parS DNA” value is at most 0.2.

Regarding HIEI, the “one-hybrid fitness for binding parS DNA” value is at most 0.2.

Turning to ILKC, the “one-hybrid fitness for binding parS DNA” value is at most 0.2.

Turning to RHRK, the “one-hybrid fitness for binding parS DNA” value was at most 0.2.

On to LRGL, for which the “one-hybrid fitness for binding parS DNA” value is at most 0.2.

As for RTDH, the “one-hybrid fitness for binding parS DNA” value was at most 0.2.

With SLGN, the “one-hybrid fitness for binding parS DNA” value is at most 0.2.

In the case of HCNE, the “one-hybrid fitness for binding parS DNA” value was at most 0.2.

On to LRIH, for which the “one-hybrid fitness for binding parS DNA” value is at most 0.2.

Regarding PNTG, the “one-hybrid fitness for binding parS DNA” value is at most 0.2.

Consider QAAI, for which the “one-hybrid fitness for binding parS DNA” value is at most 0.2.

Turning to PIRK, the “one-hybrid fitness for binding parS DNA” value is at most 0.2.

For the variant QLAC, the “one-hybrid fitness for binding parS DNA” value is at most 0.2.

Consider TTDT, for which the “one-hybrid fitness for binding parS DNA” value was at most 0.2.

TYLV: the “one-hybrid fitness for binding parS DNA” value was at most 0.2.

In the case of WQRC, the “one-hybrid fitness for binding parS DNA” value is at most 0.2.

As to CTAC, the “one-hybrid fitness for binding parS DNA” value was at most 0.2.

Turning to YIIY, the “one-hybrid fitness for binding parS DNA” value was at most 0.2.

On to VCRC, for which the “one-hybrid fitness for binding parS DNA” value was at most 0.2.

Consider MCLV, for which the “one-hybrid fitness for binding parS DNA” value was at most 0.2.

For LFKP, the “one-hybrid fitness for binding parS DNA” value was at most 0.2.

For NQLG, the “one-hybrid fitness for binding parS DNA” value was at most 0.2.

In the case of LNTF, the “one-hybrid fitness for binding parS DNA” value was at most 0.2.

As for GHQG, the “one-hybrid fitness for binding parS DNA” value is at most 0.2.

As for KWKA, the “one-hybrid fitness for binding parS DNA” value was at most 0.2.

With RADV, the “one-hybrid fitness for binding parS DNA” value is at most 0.2.

As for TCVV, the “one-hybrid fitness for binding parS DNA” value was at most 0.2.

Regarding GNSV, the “one-hybrid fitness for binding parS DNA” value was at most 0.2.

On to PKYN, for which the “one-hybrid fitness for binding parS DNA” value is at most 0.2.

Take VEDC: the “one-hybrid fitness for binding parS DNA” value was at most 0.2.

Consider TSVH, for which the “one-hybrid fitness for binding parS DNA” value was at most 0.2.

ESRD: the “one-hybrid fitness for binding parS DNA” value was at most 0.2.

SVFS: the “one-hybrid fitness for binding parS DNA” value was at most 0.2.

QIRI: the “one-hybrid fitness for binding parS DNA” value was at most 0.2.

Regarding DSLW, the “one-hybrid fitness for binding parS DNA” value was at most 0.2.

As to AMMK, the “one-hybrid fitness for binding parS DNA” value is at most 0.2.

Turning to WMMS, the “one-hybrid fitness for binding parS DNA” value amounted to 0.232.

For the variant AVGK, the “one-hybrid fitness for binding parS DNA” value is at most 0.2.

With NMWL, the “one-hybrid fitness for binding parS DNA” value is at most 0.2.

Regarding CIAT, the “one-hybrid fitness for binding parS DNA” value was at most 0.2.

For QCGP, the “one-hybrid fitness for binding parS DNA” value was at most 0.2.

As for STQY, the “one-hybrid fitness for binding parS DNA” value is at most 0.2.

On to NRSH, for which the “one-hybrid fitness for binding parS DNA” value is at most 0.2.

SLDS: the “one-hybrid fitness for binding parS DNA” value is at most 0.2.

With FTSR, the “one-hybrid fitness for binding parS DNA” value is at most 0.2.

Regarding KCLY, the “one-hybrid fitness for binding parS DNA” value is at most 0.2.

As to NTTT, the “one-hybrid fitness for binding parS DNA” value was at most 0.2.

Consider NLYH, for which the “one-hybrid fitness for binding parS DNA” value is at most 0.2.

In the case of EPDS, the “one-hybrid fitness for binding parS DNA” value is at most 0.2.

With EVTC, the “one-hybrid fitness for binding parS DNA” value is at most 0.2.

As to SCEW, the “one-hybrid fitness for binding parS DNA” value was at most 0.2.

Consider QKQM, for which the “one-hybrid fitness for binding parS DNA” value was at most 0.2.

KKQL: the “one-hybrid fitness for binding parS DNA” value is at most 0.2.

Regarding CMSS, the “one-hybrid fitness for binding parS DNA” value was at most 0.2.

Consider PKCG, for which the “one-hybrid fitness for binding parS DNA” value is at most 0.2.

Regarding CASC, the “one-hybrid fitness for binding parS DNA” value was at most 0.2.

Consider FEMC, for which the “one-hybrid fitness for binding parS DNA” value was at most 0.2.

Turning to GLTT, the “one-hybrid fitness for binding parS DNA” value is at most 0.2.

IPFD: the “one-hybrid fitness for binding parS DNA” value is at most 0.2.

Regarding RPVG, the “one-hybrid fitness for binding parS DNA” value is at most 0.2.

In the case of FTKV, the “one-hybrid fitness for binding parS DNA” value was at most 0.2.

As to CCPC, the “one-hybrid fitness for binding parS DNA” value was at most 0.2.

Regarding QTYR, the “one-hybrid fitness for binding parS DNA” value was at most 0.2.

Turning to PSWP, the “one-hybrid fitness for binding parS DNA” value is at most 0.2.

For QRFN, the “one-hybrid fitness for binding parS DNA” value was at most 0.2.

As to QENC, the “one-hybrid fitness for binding parS DNA” value is at most 0.2.

Consider RVYW, for which the “one-hybrid fitness for binding parS DNA” value was at most 0.2.

Consider LWHP, for which the “one-hybrid fitness for binding parS DNA” value is at most 0.2.

In the case of CPLN, the “one-hybrid fitness for binding parS DNA” value is at most 0.2.

As to PGMI, the “one-hybrid fitness for binding parS DNA” value is at most 0.2.

Consider QAGP, for which the “one-hybrid fitness for binding parS DNA” value is at most 0.2.

QFQA: the “one-hybrid fitness for binding parS DNA” value is at most 0.2.

YWHR: the “one-hybrid fitness for binding parS DNA” value was at most 0.2.

Turning to WSRR, the “one-hybrid fitness for binding parS DNA” value was at most 0.2.

Take VWKT: the “one-hybrid fitness for binding parS DNA” value is at most 0.2.

Regarding DSPR, the “one-hybrid fitness for binding parS DNA” value is at most 0.2.

LPMR: the “one-hybrid fitness for binding parS DNA” value was at most 0.2.

Take NIDG: the “one-hybrid fitness for binding parS DNA” value is at most 0.2.

As for KGSS, the “one-hybrid fitness for binding parS DNA” value was at most 0.2.

Regarding QGKP, the “one-hybrid fitness for binding parS DNA” value is at most 0.2.

Turning to AAHW, the “one-hybrid fitness for binding parS DNA” value was at most 0.2.

Consider YVHT, for which the “one-hybrid fitness for binding parS DNA” value is at most 0.2.

Take GPIG: the “one-hybrid fitness for binding parS DNA” value is at most 0.2.

Consider SLCM, for which the “one-hybrid fitness for binding parS DNA” value is at most 0.2.

On to YMKT, for which the “one-hybrid fitness for binding parS DNA” value was at most 0.2.

REAL: the “one-hybrid fitness for binding parS DNA” value was at most 0.2.

Regarding HAMT, the “one-hybrid fitness for binding parS DNA” value is at most 0.2.

For RSSS, the “one-hybrid fitness for binding parS DNA” value was 0.99.

With AELM, the “one-hybrid fitness for binding parS DNA” value is at most 0.2.

With NGIS, the “one-hybrid fitness for binding parS DNA” value is at most 0.2.

Take FRNT: the “one-hybrid fitness for binding parS DNA” value is at most 0.2.

As to TLKL, the “one-hybrid fitness for binding parS DNA” value is at most 0.2.

On to PKGS, for which the “one-hybrid fitness for binding parS DNA” value is at most 0.2.

With QTRK, the “one-hybrid fitness for binding parS DNA” value is at most 0.2.

On to NVMS, for which the “one-hybrid fitness for binding parS DNA” value is at most 0.2.

As for PWEL, the “one-hybrid fitness for binding parS DNA” value is at most 0.2.

For IHKC, the “one-hybrid fitness for binding parS DNA” value is at most 0.2.

Turning to QTAK, the “one-hybrid fitness for binding parS DNA” value was at most 0.2.

As to SNMG, the “one-hybrid fitness for binding parS DNA” value is at most 0.2.

In the case of TRSC, the “one-hybrid fitness for binding parS DNA” value is at most 0.2.

Turning to NPLV, the “one-hybrid fitness for binding parS DNA” value was at most 0.2.

For PARS, the “one-hybrid fitness for binding parS DNA” value is at most 0.2.

As to CHNW, the “one-hybrid fitness for binding parS DNA” value was at most 0.2.

Regarding RVNE, the “one-hybrid fitness for binding parS DNA” value was at most 0.2.

SAAM: the “one-hybrid fitness for binding parS DNA” value was at most 0.2.

Turning to THGL, the “one-hybrid fitness for binding parS DNA” value was at most 0.2.

SMVL: the “one-hybrid fitness for binding parS DNA” value was at most 0.2.

As for LDYP, the “one-hybrid fitness for binding parS DNA” value is at most 0.2.

Take SGIW: the “one-hybrid fitness for binding parS DNA” value was at most 0.2.

As to RFAV, the “one-hybrid fitness for binding parS DNA” value is at most 0.2.

With NEEY, the “one-hybrid fitness for binding parS DNA” value is at most 0.2.

As for WWLG, the “one-hybrid fitness for binding parS DNA” value is at most 0.2.

For the variant FYPG, the “one-hybrid fitness for binding parS DNA” value is at most 0.2.

With SMPK, the “one-hybrid fitness for binding parS DNA” value was at most 0.2.

On to ENNW, for which the “one-hybrid fitness for binding parS DNA” value is at most 0.2.

In the case of PGTM, the “one-hybrid fitness for binding parS DNA” value is at most 0.2.

In the case of ICNC, the “one-hybrid fitness for binding parS DNA” value was at most 0.2.

Regarding CINR, the “one-hybrid fitness for binding parS DNA” value is at most 0.2.

In the case of TPAY, the “one-hybrid fitness for binding parS DNA” value is at most 0.2.

On to QATR, for which the “one-hybrid fitness for binding parS DNA” value is at most 0.2.

Consider QEKS, for which the “one-hybrid fitness for binding parS DNA” value is at most 0.2.

On to NTLG, for which the “one-hybrid fitness for binding parS DNA” value was at most 0.2.

Consider TEVS, for which the “one-hybrid fitness for binding parS DNA” value is at most 0.2.

With MNSW, the “one-hybrid fitness for binding parS DNA” value was at most 0.2.

With AQRV, the “one-hybrid fitness for binding parS DNA” value was at most 0.2.

CTTW: the “one-hybrid fitness for binding parS DNA” value is at most 0.2.

For the variant QMIW, the “one-hybrid fitness for binding parS DNA” value was at most 0.2.

For the variant QRKF, the “one-hybrid fitness for binding parS DNA” value was at most 0.2.

In the case of KRFH, the “one-hybrid fitness for binding parS DNA” value was at most 0.2.

Turning to EFAR, the “one-hybrid fitness for binding parS DNA” value was at most 0.2.

With NHTC, the “one-hybrid fitness for binding parS DNA” value was at most 0.2.

Take VIQW: the “one-hybrid fitness for binding parS DNA” value was at most 0.2.

For TMKG, the “one-hybrid fitness for binding parS DNA” value was at most 0.2.

On to NGVV, for which the “one-hybrid fitness for binding parS DNA” value is at most 0.2.

For the variant MNPG, the “one-hybrid fitness for binding parS DNA” value is at most 0.2.

YRFC: the “one-hybrid fitness for binding parS DNA” value is at most 0.2.
